According to PMC4336329 (PLoS ONE, 2015):
Screen size: about 310,000 compounds; about 14,000 (4.5%) showed an effect of 50% or more. The effect is printed as a negative number. The list shows a part of the results.

target: human ether-à-go-go-related gene (hERG) potassium channel (human, UniProt Q12809); experiment: primary screen, population patch clamp on CHO cells stably expressing hERG
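Also: peak tail current of the secondary pulse compared with the same well before compound.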

human ether-à-go-go-related gene (hERG) potassium channel, sequence (Q12809 whole entry, looked up): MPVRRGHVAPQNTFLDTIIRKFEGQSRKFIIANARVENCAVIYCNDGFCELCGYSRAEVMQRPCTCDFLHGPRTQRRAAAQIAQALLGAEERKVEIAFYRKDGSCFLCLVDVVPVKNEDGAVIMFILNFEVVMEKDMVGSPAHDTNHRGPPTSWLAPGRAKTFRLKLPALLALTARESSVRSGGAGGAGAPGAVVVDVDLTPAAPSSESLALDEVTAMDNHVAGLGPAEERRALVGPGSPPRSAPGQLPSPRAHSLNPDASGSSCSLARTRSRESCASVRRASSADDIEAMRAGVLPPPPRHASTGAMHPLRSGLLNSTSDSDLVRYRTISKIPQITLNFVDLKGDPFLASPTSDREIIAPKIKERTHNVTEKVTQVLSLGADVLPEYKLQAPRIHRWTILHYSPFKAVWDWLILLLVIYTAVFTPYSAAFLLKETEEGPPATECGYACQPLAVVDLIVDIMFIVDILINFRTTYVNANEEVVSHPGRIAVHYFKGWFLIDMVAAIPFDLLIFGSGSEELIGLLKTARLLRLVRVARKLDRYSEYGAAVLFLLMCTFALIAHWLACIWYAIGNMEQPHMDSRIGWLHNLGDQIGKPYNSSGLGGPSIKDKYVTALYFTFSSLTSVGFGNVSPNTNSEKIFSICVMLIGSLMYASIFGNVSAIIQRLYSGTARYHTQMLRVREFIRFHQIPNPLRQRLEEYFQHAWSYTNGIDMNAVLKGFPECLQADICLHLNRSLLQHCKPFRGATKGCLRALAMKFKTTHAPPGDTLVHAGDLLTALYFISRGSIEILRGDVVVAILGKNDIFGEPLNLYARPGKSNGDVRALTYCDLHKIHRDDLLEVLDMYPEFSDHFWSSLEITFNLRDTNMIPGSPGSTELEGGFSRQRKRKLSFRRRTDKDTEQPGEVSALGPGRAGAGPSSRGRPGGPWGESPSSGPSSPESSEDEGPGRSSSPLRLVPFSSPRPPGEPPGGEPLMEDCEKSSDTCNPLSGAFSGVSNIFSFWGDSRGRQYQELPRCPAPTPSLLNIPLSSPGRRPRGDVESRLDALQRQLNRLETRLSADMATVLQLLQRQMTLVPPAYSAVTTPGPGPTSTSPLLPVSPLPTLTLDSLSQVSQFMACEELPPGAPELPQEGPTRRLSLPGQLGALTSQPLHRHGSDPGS

Compound	hERG current change (%, negative = inhibition) at 10uM
CCN(CC)CCSc1nc(O)c(C(C)C)c(=O)[nH]1.Cl	15.7%
Cc1c(C(=O)NCc2ccco2)oc2ccc(S(=O)(=O)N3CCC4(CC3)OCCO4)cc12	-19.7%
Cc1cc(C)n(-c2nncc(-c3ccccc3)n2)n1	-15.4%
CCN1C(=O)[C@H]2[C@@H](c3ccc(OC)cc3)N3C(=O)CN(CC4CC4)C(=O)[C@@]3(C)[C@H]2C1=O	-25%
Cc1csc(CN(C)C(=O)CC2C(=O)NCCN2Cc2ccc(Cl)c(F)c2)n1 (stereo not drawn)	4.4%
CCOc1ccc(N(CC(=O)Nc2ccc(C)c(C)c2)S(=O)(=O)c2c(C)[nH]c(=O)[nH]c2=O)cc1	7.1%
CN(CC(=O)Nc1ccccc1Br)C(=O)c1ccccc1Cc1ccccc1	-20.2%
Cc1ccc(C(C)C)cc1OCC(=O)Nc1ccc(N2CCCCC2)cc1	17.8%
COCCn1nnnc1CN1CCSCC1.Cl	29.7%
O=[N+]([O-])c1ccc(-c2cnc[nH]2)cc1	-10.5%
O=C(CCc1c[nH]c2ccccc12)NC(Cc1c[nH]c2ccccc12)C(=O)O (stereo not drawn)	21.2%
CC(C)(C)OC(=O)NCCCCCc1nnc(SCc2ccc(F)cc2)o1	-7.18%
Cc1nn(C)c(C)c1CN(C)S(=O)(=O)c1ccc(F)cc1	-4.76%
CN1OCC(S(=O)(=O)c2ccccc2)C1c1ccccc1 (stereo not drawn)	2.44%
COc1ccc(-n2nc(C(=O)NCC(=O)N3CCOCC3)c3ccccc3c2=O)cc1Cl	8.9%
C[N+]12CCCCC1C(COC(=O)c1ccc3c(c1)OCO3)CCC2.[I-] (stereo not drawn)	15.3%
CCn1c(COc2ccccc2C)nnc1SCC(=O)N1CCN(c2ccccc2)CC1	-21.5%
CC1CCCN(C(=O)CCc2ccccc2)C1 (stereo not drawn)	-5.7%
Cc1ccc(P(=O)(OCCN2CCOCC2)C(C)(C)C)o1 (stereo not drawn)	-4.4%

Compound	hERG current change (%, negative = inhibition) at 10uM
O=C(Nc1ccc(Oc2ccccc2)nc1)C1CCN(Cc2cccc(F)c2)CC1	-49.8%
Cc1cc(NCc2ccc(F)cc2Cl)n2nnnc2n1	7.1%
COc1ccc(/C=N/n2c(-c3ccco3)nc3ccccc3c2=O)cc1	10.4%
COc1cc2cc(CN(Cc3cccnc3)C(=O)Nc3ccccc3)c(=O)[nH]c2cc1OC	-21.8%
O=C(O)C1CCCCN1S(=O)(=O)c1ccc2ccccc2c1 (stereo not drawn)	-8.26%
COCCNC(=O)CSc1nc2ccccc2c(=O)n1CC1CCCO1 (stereo not drawn)	-11.9%
COC(=O)Cn1ccc(N(C)C)c(C#N)c1=O	16.5%
COc1ccc(OCC(=O)Nc2c3c(nn2-c2ccc(OC)cc2)CS(=O)(=O)C3)cc1	4.26%
CC(C)C(=O)c1cc2c(cc1NC(=O)Nc1cccc3ccccc13)OCCO2	-11%
NS(=O)(=O)c1ccc(NC(=S)Nc2nn(Cc3ccc(Cl)cc3Cl)cc2Cl)cc1	13.4%
N#Cc1cc2c(nc1SCC(=O)Nc1sc3c(c1C#N)CCC3)CCC2	1.68%
CN1C2CCC1CC(N(CCc1ccccc1)C(=O)c1ccc(Cl)cc1)C2.Cl (stereo not drawn)	-83.2%
C[C@@H]1CC=C[C@H]2[C@H]1C(=O)N(Cc1ccccc1)[C@H]2c1ccc(/C=C/c2ccccc2)cc1F	4.34%
Cc1ccc(Cl)cc1NC(=O)Cn1c(C)csc1=O	16.2%
O=C(NC1CCSc2ccccc21)c1cccc(Cl)c1 (stereo not drawn)	18%
C=CCS(=O)(=O)N1CCCC(Cc2ccccc2C)(C(=O)OCC)C1 (stereo not drawn)	5.06%
CN(C)c1ccc(C(=O)N2CC(=O)N(CCc3ccccc3)C(=O)C2)cc1	-10.5%
O=c1[nH]c(SCc2ccccc2Cl)nc2c1CCC2	-4.58%
CC1=C(C#N)C(/C=N/OCc2ccc(F)cc2Cl)CC(=O)N1 (stereo not drawn)	-4.43%

Compound	hERG current change (%, negative = inhibition) at 10uM
CC(NC(=O)C1CCN(C(=O)Nc2ccccc2)CC1)c1ccc(Cl)cc1 (stereo not drawn)	-24.8%
COCCNC(=O)Cn1c(=O)n(C)c2ccccc21	11.3%
N/C(=N\OC(=O)c1cccc2ccccc12)c1ccc(Br)cc1	-7.48%
Br.CNc1nc2ccccc2n1CC(=O)c1ccccc1	9.8%
CCC(C)NC(=O)C1CCN(S(=O)(=O)c2cccc3nonc23)CC1 (stereo not drawn)	9.13%
Nc1nc2sc3c(c2cc1C(=O)NCC(=O)O)CCCC3	18.2%
O=[N+]([O-])c1ccc2nc(C3CCCCC3)[nH]c2c1	-5.42%
O=C(CCNC(=O)c1ccco1)NCc1ccccc1	-8.78%
Cc1ccc(NC(=O)C(NCc2ccccn2)c2ccccc2)cc1 (stereo not drawn)	0.256%
Cc1ccc(C)c(NNC(N)=S)c1	14%
CCc1ccc(OCC(=O)NNC(=O)Cc2ccc(S(=O)(=O)N3CCOCC3)s2)cc1	-29.7%
CN(c1ccccc1)S(=O)(=O)c1ccc(C(=O)N2CCc3ccccc3C2)cc1	-28%
COC(=O)c1c(-c2ccc(C)cc2)csc1NC(=S)NC(=O)c1ccc(F)cc1	6.36%
CC(=O)c1ccc(NC(=O)/C(=C\c2ccccc2)NC(=O)c2ccco2)cc1	-17.8%
COC(=O)c1nn(-c2ccc(Oc3ccccc3)cc2)c(=O)cc1O	26.5%
O=C(CN1CCCCC1)NCC(=O)Nc1ccc(Br)cc1C(=O)c1ccccc1	-79.1%
CCCCC(=O)Nc1nnc(C)s1	4.73%
Cc1ccc(-c2nc(CSCC(=O)NCC3CCCO3)c(C)o2)cc1 (stereo not drawn)	-1.25%
CN(CC(=O)Nc1ccc(F)cc1)S(=O)(=O)c1ccc2c(c1)c(=O)n(C)c(=O)n2C	13.7%
